The source of these data is US9873709B2 (priority 2013, dated 2018).

Structures can show the parent of a compound that is named as a salt.

The target of this experiment is isolated recombinant JAK1 kinase domain (Homo sapiens (Human), UniProt P23458). The following applies: read-out: JAK1 Ki; isolated recombinant JAK1 kinase domain, 25 μM ATP.
A word on the Ki: it is a measure of affinity in units of concentration, obtained from inhibition or displacement. In the case of `CN1CCC(N(C)C(=O)c2ccc(Nc3nc4c(C5=CCN(C(=O)C6CCOCC6)CC5)cccn4n3)cc2)CC1` [Example 2-105, N-methyl-N-(1-methyl-4-piperidyl)-4-[[8-[1-(tetrahydropyran-4-carbonyl)-3,6-dihydro-2H-pyridin-4-yl]-[1,2,4]triazolo[1,5-a]pyridin-2-yl]amino]benzamide], the Ki is 7.57 nM. Then `CNC(=O)N1CC=C(c2cccn3nc(Nc4ccc(C(=O)N(C)C5CCN(C)CC5)cc4)nc23)CC1` [Example 2-106, N-methyl-4-[2-[4-[methyl-(1-methyl-4-piperidyl)carbamoyl]anilino]-[1,2,4]triazolo[1,5-a]pyridin-8-yl]-3,6-dihydro-2H-pyridine-1-carboxamide; hydrochloride], with 38.6 nM; and `CN1CCC(N(C)C(=O)c2ccc(Nc3nc4c(C5=CCN(C(=O)C6CCOC6)CC5)cccn4n3)cc2)CC1` (stereo not drawn) [Example 2-107, N-methyl-N-(1-methyl-4-piperidyl)-4-[[8-[1-(tetrahydrofuran-3-carbonyl)-3,6-dihydro-2H-pyridin-4-yl]-[1,2,4]triazolo[1,5-a]pyridin-2-yl]amino]benzamide; hydrochloride], with 5.5 nM; and `CN1CCC(N(C)C(=O)c2ccc(Nc3nc4c(C5=CCN(C(=O)OCC(F)(F)F)CC5)cccn4n3)cc2)CC1` [Example 2-108, 2,2,2-trifluoroethyl 4-[2-[4-[methyl-(1-methyl-4-piperidyl)carbamoyl]anilino]-[1,2,4]triazolo[1,5-a]pyridin-8-yl]-3,6-dihydro-2H-pyridine-1-carboxylate], with 1.37 nM.

As for `CCOC(=O)N1CC=C(c2cccn3nc(Nc4ccc(C(=O)NC(C)(C)CN5CCOCC5)cc4)nc23)CC1` [Example 2-110, ethyl 4-[2-[4-[(1,1-dimethyl-2-morpholino-ethyl)carbamoyl]anilino]-[1,2,4]triazolo[1,5-a]pyridin-8-yl]-3,6-dihydro-2H-pyridine-1-carboxylate], the Ki came to 3.27 nM. For `CCOC(=O)N1CC=C(c2cccn3nc(Nc4ccc(C(=O)NCCC5CCCN5C)cc4)nc23)CC1` (stereo not drawn) [Example 2-111, ethyl 4-[2-[4-[2-(1-methylpyrrolidin-2-yl)ethylcarbamoyl]anilino]-[1,2,4]triazolo[1,5-a]pyridin-8-yl]-3,6-dihydro-2H-pyridine-1-carboxylate], the Ki stood at 1.59 nM. Then `CCOC(=O)N1CC=C(c2cccn3nc(Nc4ccc(C(=O)NCCN5CCNCC5)cc4)nc23)CC1` [Example 2-112, ethyl 4-[2-[4-(2-piperazin-1-ylethylcarbamoyl)anilino]-[1,2,4]triazolo[1,5-a]pyridin-8-yl]-3,6-dihydro-2H-pyridine-1-carboxylate], with 1.7 nM. The same measure for `CCOC(=O)N1CC=C(c2cccn3nc(Nc4ccc(C(=O)NC5CCCNC5)cc4)nc23)CC1` (stereo not drawn) [Example 2-113, ethyl 4-[2-[4-(3-piperidylcarbamoyl)anilino]-[1,2,4]triazolo[1,5-a]pyridin-8-yl]-3,6-dihydro-2H-pyridine-1-carboxylate]: 1.42 nM; for `CCOC(=O)N1CC=C(c2cccn3nc(Nc4ccc(C(=O)N5CC(C(=O)N(C)C)C5)cc4)nc23)CC1` [Example 2-115, ethyl 4-[2-[4-[3-(dimethylcarbamoyl)azetidine-1-carbonyl]anilino]-[1,2,4]triazolo[1,5-a]pyridin-8-yl]-3,6-dihydro-2H-pyridine-1-carboxylate]: 1.29 nM. Regarding `CCOC(=O)N1CC=C(c2cccn3nc(Nc4ccc(C(=O)NCCC5CCN(C)CC5)cc4)nc23)CC1` [Example 2-116, ethyl 4-[2-[4-[2-(1-methyl-4-piperidyl)ethylcarbamoyl]anilino]-[1,2,4]triazolo[1,5-a]pyridin-8-yl]-3,6-dihydro-2H-pyridine-1-carboxylate], the Ki was determined as 2.14 nM. As to `CCOC(=O)N1CC=C(c2cccn3nc(Nc4ccc(C(=O)N(C)C5CCN(Cc6ccccc6)C5)cc4)nc23)CC1` (stereo not drawn) [Example 2-117, ethyl 4-[2-[4-[(1-benzylpyrrolidin-3-yl)-methyl-carbamoyl]anilino]-[1,2,4]triazolo[1,5-a]pyridin-8-yl]-3,6-dihydro-2H-pyridine-1-carboxylate], the Ki was determined as 4.57 nM. In the case of `CCOC(=O)N1CC=C(c2cccn3nc(Nc4ccc(C(=O)N5CCC(N(CC)CC)C5)cc4)nc23)CC1` (stereo not drawn) [Example 2-118, ethyl 4-[2-[4-[3-(diethylamino)pyrrolidine-1-carbonyl]anilino]-[1,2,4]triazolo[1,5-a]pyridin-8-yl]-3,6-dihydro-2H-pyridine-1-carboxylate], the Ki was 3.48 nM. With `CCOC(=O)N1CC=C(c2cccn3nc(Nc4ccc(C(=O)N(C)CCc5ccncc5)cc4)nc23)CC1` [Example 2-119, ethyl 4-[2-[4-[methyl-[2-(4-pyridyl)ethyl]carbamoyl]anilino]-[1,2,4]triazolo[1,5-a]pyridin-8-yl]-3,6-dihydro-2H-pyridine-1-carboxylate], the Ki was found to be 1.68 nM. In the case of `CCOC(=O)N1CC=C(c2cccn3nc(Nc4ccc(C(=O)N5CC6(CN(C)CCO6)C5)cc4)nc23)CC1` [Example 2-120, ethyl 4-[2-[4-(8-methyl-5-oxa-2,8-diazaspiro[3.5]nonane-2-carbonyl)anilino]-[1,2,4]triazolo[1,5-a]pyridin-8-yl]-3,6-dihydro-2H-pyridine-1-carboxylate], the Ki stood at 8.78 nM.

With `CCOC(=O)N1CC=C(c2cccn3nc(Nc4ccc(C(=O)N5CCC(c6ccncc6)CC5)cc4)nc23)CC1` [Example 2-121, ethyl 4-[2-[4-[4-(4-pyridyl)piperidine-1-carbonyl]anilino]-[1,2,4]triazolo[1,5-a]pyridin-8-yl]-3,6-dihydro-2H-pyridine-1-carboxylate], the Ki came out at 2.23 nM.

Consider `CCOC(=O)N1CC=C(c2cccn3nc(Nc4ccc(C(=O)N5C[C@@H]6CCN(C)[C@@H]6C5)cc4)nc23)CC1` [Example 2-122, ethyl 4-[2-[4-[(3aS,6aS)-1-methyl-2,3,3a,4,6,6a-hexahydropyrrolo[3,4-b]pyrrole-5-carbonyl]anilino]-[1,2,4]triazolo[1,5-a]pyridin-8-yl]-3,6-dihydro-2H-pyridine-1-carboxylate], for which the Ki came to 4.74 nM.

With `CCOC(=O)N1CC=C(c2cccn3nc(Nc4ccc(C(=O)N5CC6CN(C)CC(C5)O6)cc4)nc23)CC1` [Example 2-123, ethyl 4-[2-[4-(7-methyl-9-oxa-3,7-diazabicyclo[3.3.1]nonane-3-carbonyl)anilino]-[1,2,4]triazolo[1,5-a]pyridin-8-yl]-3,6-dihydro-2H-pyridine-1-carboxylate], the Ki turned out to be 1.94 nM. Then `CCOC(=O)N1CC=C(c2cccn3nc(Nc4ccc(C(=O)NCc5cc(C)ccn5)cc4)nc23)CC1` [Example 2-124, ethyl 4-[2-[4-[(4-methyl-2-pyridyl)methylcarbamoyl]anilino]-[1,2,4]triazolo[1,5-a]pyridin-8-yl]-3,6-dihydro-2H-pyridine-1-carboxylate], with 1.34 nM; and `CCOC(=O)N1CC=C(c2cccn3nc(Nc4ccc(C(=O)N5CCOC6CCNCC65)cc4)nc23)CC1` (stereo not drawn) [Example 2-125, ethyl 4-[2-[4-(2,3,4a,5,6,7,8,8a-octahydropyrido[4,3-b][1,4]oxazine-4-carbonyl)anilino]-[1,2,4]triazolo[1,5-a]pyridin-8-yl]-3,6-dihydro-2H-pyridine-1-carboxylate], with 3.82 nM; and `CCOC(=O)N1CC=C(c2cccn3nc(Nc4ccc(C(=O)N5CC6CNCC6C5)cc4)nc23)CC1` (stereo not drawn) [Example 2-126, ethyl 4-[2-[4-(2,3,3a,4,6,6a-hexahydro-1H-pyrrolo[3,4-c]pyrrole-5-carbonyl)anilino]-[1,2,4]triazolo[1,5-a]pyridin-8-yl]-3,6-dihydro-2H-pyridine-1-carboxylate], with 2.33 nM.

As to `CCOC(=O)N1CC=C(c2cccn3nc(Nc4ccc(C(=O)N5CCO[C@@H]6CNC[C@H]65)cc4)nc23)CC1` [Example 2-127], the Ki turned out to be 3.13 nM. The same measure for `CCOC(=O)N1CC=C(c2cccn3nc(Nc4ccc(C(=O)N5CCC6(CCN6)CC5)cc4)nc23)CC1` [Example 2-128, ethyl 4-[2-[4-(1,7-diazaspiro[3.5]nonane-7-carbonyl)anilino]-[1,2,4]triazolo[1,5-a]pyridin-8-yl]-3,6-dihydro-2H-pyridine-1-carboxylate]: 2.73 nM; for `CCOC(=O)N1CC=C(c2cccn3nc(Nc4ccc(C(=O)N5CCNCC5)cc4)nc23)CC1` [Example 2-129, ethyl 4-[2-[4-(piperazine-1-carbonyl)anilino]-[1,2,4]triazolo[1,5-a]pyridin-8-yl]-3,6-dihydro-2H-pyridine-1-carboxylate]: 4.02 nM; for `CCOC(=O)N1CC=C(c2cccn3nc(Nc4ccc(C(=O)N5CCC(CN)C5)cc4)nc23)CC1` (stereo not drawn) [Example 2-130, ethyl 4-[2-[4-[3-(aminomethyl)pyrrolidine-1-carbonyl]anilino]-[1,2,4]triazolo[1,5-a]pyridin-8-yl]-3,6-dihydro-2H-pyridine-1-carboxylate]: 1.28 nM. Then `CCOC(=O)N1CC=C(c2cccn3nc(Nc4ccc(C(=O)N5CCCC6(CCCCN6)C5)cc4)nc23)CC1` (stereo not drawn) [Example 2-131, ethyl 4-[2-[4-(1,8-diazaspiro[5.5]undecane-8-carbonyl)anilino]-[1,2,4]triazolo[1,5-a]pyridin-8-yl]-3,6-dihydro-2H-pyridine-1-carboxylate], with 2.87 nM. The same measure for `CCOC(=O)N1CC=C(c2cccn3nc(Nc4ccc(C(=O)N5CCCC6(CCCNC6)C5)cc4)nc23)CC1` (stereo not drawn) [Example 2-132, ethyl 4-[2-[4-(2,8-diazaspiro[5.5]undecane-2-carbonyl)anilino]-[1,2,4]triazolo[1,5-a]pyridin-8-yl]-3,6-dihydro-2H-pyridine-1-carboxylate]: 2.39 nM; for `CCOC(=O)N1CC=C(c2cccn3nc(Nc4ccc(C(=O)N5CCC6(CC5)CC(N)C6)cc4)nc23)CC1` [Example 2-133, ethyl 4-[2-[4-(2-amino-7-azaspiro[3.5]nonane-7-carbonyl)anilino]-[1,2,4]triazolo[1,5-a]pyridin-8-yl]-3,6-dihydro-2H-pyridine-1-carboxylate]: 2.65 nM.
